{"source": "the supplement of paper PMC4604168 (melanoma cell lines)", "note": "The other results are listed elsewhere or left out. Single values are uncertain, as repeats are few or missing.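 Note: cell number obtained by counting DAPI-stained nuclei in high-throughput microscope images with image analysis software, screen run in 1,536-well plates.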"}
{"tested_on": "501Mel", "assay": "cell count relative to DMSO control; melanoma cells; higher = more viable cells", "details": "library dose: low library concentration; 72 h", "units": {"cell count": "%"}}
{"compound": "Cc1cn(-c2cc(NC(=O)c3ccc(C)c(Nc4nccc(-c5cccnc5)n4)c3)cc(C(F)(F)F)c2)cn1", "note": "[nilotinib] + CCN(CC)CCNC(=O)c1c(C)[nH]c(/C=C2\\C(=O)Nc3ccc(F)cc32)c1C [sunitinib] (first compound 0.2 µM, partner dose 0.4 µM)", "cell count": 126}
{"compound": "Cc1cc(Nc2cc(N3CCN(C)CC3)nc(/C=C/c3ccccc3)n2)n[nH]1", "note": "+ COc1ccc(Cl)c(Nc2nc3ccccc3nc2NS(=O)(=O)c2cccc(NC(=O)C(C)(C)N)c2)c1 [XL147] (first compound 0.04 µM, partner dose 0.8 µM)", "cell count": 67.4}
{"compound": "COc1ccc(C2=N[C@@H](c3ccc(Cl)cc3)[C@@H](c3ccc(Cl)cc3)N2C(=O)N2CCNC(=O)C2)c(OC(C)C)c1", "note": "[Nutlin-3] + NC1(c2ccc(-c3nc4ccn5c(=O)[nH]nc5c4cc3-c3ccccc3)cc2)CCC1 [MK2206] (first compound 0.1 µM, partner dose 0.4 µM)", "cell count": 67.9}
{"compound": "CC(C)C[C@H](NC(=O)[C@H](Cc1ccccc1)NC(=O)c1cnccn1)B(O)O", "note": "[Bortezomib] + CS(=O)(=O)CCNCc1ccc(-c2ccc3ncnc(Nc4ccc(OCc5cccc(F)c5)c(Cl)c4)c3c2)o1 [lapatinib] (first compound 0.001 µM, partner dose 0.8 µM)", "cell count": 37.5}
{"compound": "CC(C)C[C@H](NC(=O)[C@H](Cc1ccccc1)NC(=O)c1cnccn1)B(O)O", "note": "[Bortezomib] + C[C@]1(c2nc3c(C(N)=O)cccc3[nH]2)CCCN1 [Veliparib] (first compound 0.001 µM, partner dose 1.4 µM)", "cell count": 14.9}
{"compound": "Cc1cc(Nc2cc(N3CCN(C)CC3)nc(/C=C/c3ccccc3)n2)n[nH]1", "note": "+ COCC[n+]1c2c(n(Cc3cnccn3)c1C)C(=O)c1ccccc1C2=O [YM155] (first compound 0.04 µM, partner dose 0.0004 µM)", "cell count": 83.6}
{"compound": "Cc1cn(-c2cc(NC(=O)c3ccc(C)c(Nc4nccc(-c5cccnc5)n4)c3)cc(C(F)(F)F)c2)cn1", "note": "[nilotinib] + CC(C)C[C@H](NC(=O)[C@H](Cc1ccccc1)NC(=O)c1cnccn1)B(O)O [Bortezomib] (first compound 0.2 µM, partner dose 0.001 µM)", "cell count": 45.3}
{"compound": "Cn1c(=O)n(-c2ccc(C(C)(C)C#N)cc2)c2c3cc(-c4cnc5ccccc5c4)ccc3ncc21", "note": "+ CN1CCN(c2ccc3nc(-c4c(N)c5c(F)cccc5[nH]c4=O)[nH]c3c2)CC1 [Dovitinib] (first compound 0.004 µM, partner dose 0.1 µM)", "cell count": 65.8}
{"compound": "CC(C)C[C@H](NC(=O)[C@H](Cc1ccccc1)NC(=O)c1cnccn1)B(O)O", "note": "[Bortezomib] + CCCS(=O)(=O)Nc1ccc(F)c(C(=O)c2c[nH]c3ncc(Cl)cc23)c1F [PLX4720] (first compound 0.001 µM, partner dose 0.08 µM)", "cell count": 36.4}
{"compound": "Cc1cn(-c2cc(NC(=O)c3ccc(C)c(Nc4nccc(-c5cccnc5)n4)c3)cc(C(F)(F)F)c2)cn1", "note": "[nilotinib] + OCc1c[nH]c2ccccc12 [Indole-3-carbinol] (first compound 0.2 µM, partner dose 0.8 µM)", "cell count": 48.2}
{"compound": "CC(C)C[C@H](NC(=O)[C@H](Cc1ccccc1)NC(=O)c1cnccn1)B(O)O", "note": "[Bortezomib] + Cn1c(Nc2ccc(C(F)(F)F)cc2)nc2cc(Oc3ccnc(-c4ncc(C(F)(F)F)[nH]4)c3)ccc21 [CHIR265] (first compound 0.001 µM, partner dose 0.08 µM)", "cell count": 34.2}
{"compound": "Cc1cc(Nc2cc(N3CCN(C)CC3)nc(/C=C/c3ccccc3)n2)n[nH]1", "note": "+ Cn1nnc2c(C(N)=O)ncn2c1=O [temozolomide] (first compound 0.04 µM, partner dose 2 µM)", "cell count": 67.8}
{"compound": "Cc1cn(-c2cc(NC(=O)c3ccc(C)c(Nc4nccc(-c5cccnc5)n4)c3)cc(C(F)(F)F)c2)cn1", "note": "[nilotinib] + Cn1nnc2c(C(N)=O)ncn2c1=O [temozolomide] (first compound 0.2 µM, partner dose 2 µM)", "cell count": 144}
